{
  "source": "PubChem BioAssay AID485294",
  "about": "(National Center for Advancing Translational Sciences (NCATS), 2010)",
  "note": "About 150 (0.041%) of roughly 370,000 compounds were called active. This list was built around the results that the source calls inconclusive (neither active nor inactive); the mix of calls is not that of the screen. Calls follow the shape of the dose curve; as a rule, active = well fitted inhibition curve with a large enough effect; inconclusive = small, poorly fitted or top-dose-only effect; inactive = flat fitted curve, though single readings scatter. Potencies of inconclusive entries are left out as doubtful fits. Potency is read from the fitted curve at half-maximal effect; tags tell the direction and shape of the fitted curve.",
  "data": [
    {"target": "Beta-lactamase (Escherichia coli (strain K12)) (UniProt P00811)", "sequence (P00811 whole entry, looked up)": "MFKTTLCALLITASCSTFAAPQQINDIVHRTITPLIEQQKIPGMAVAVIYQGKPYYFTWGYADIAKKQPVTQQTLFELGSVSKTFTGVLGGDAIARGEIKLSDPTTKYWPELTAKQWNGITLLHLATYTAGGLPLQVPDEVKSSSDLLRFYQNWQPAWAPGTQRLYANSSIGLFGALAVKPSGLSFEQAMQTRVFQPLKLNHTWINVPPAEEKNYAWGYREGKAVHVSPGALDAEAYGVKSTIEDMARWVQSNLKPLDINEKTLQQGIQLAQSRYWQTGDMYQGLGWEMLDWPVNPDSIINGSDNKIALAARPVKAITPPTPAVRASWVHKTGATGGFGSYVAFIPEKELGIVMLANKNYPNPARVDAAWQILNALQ", "assay": "qHTS Inhibitors of AmpC Beta-Lactamase (assay with detergent); also: nearly all actives have a fitted effect of over 25% in size;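 as to activity change, negative = inhibition: 0% = no-compound wells and -100% = no-enzyme wells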", "details": "AmpC hydrolysis of nitrocefin, absorbance 480 nm, 0.01% Triton; activity change, negative = inhibition: at 114 µM (top of the series)", "description": "NIH Molecular Libraries Probe Production Network [MLPCN] NIH Chemical Genomics Center [NCGC] Assay Provider: Professor Brian Shoichet, UCSF Assay Overview: This aggregation profiling approach exploits the sensitivity of aggregate formation to detergent. Inhibition of b-lactamase is measured in the presence and absence of 0.01% Triton X-100. This particular assay had the prescence of 0.01% Triton X-100. See Pubchem assay \"Promiscuous and Specific Inhibitors of AmpC Beta-Lactamase (assay without detergent)\" for related screen. Compounds that inhibit only in the absence of detergent are considered likely promiscuous aggregators. A screen of 1,030 compounds was performed in Brian Shoichet's lab in 96-well format. AmpC activity was measured by following the absorbance at 480 nm. Nitrocefin is a chromogenic substrate: while nitrocefin is yellow (lmax 390 nm), the product of its hydrolysis is red (lmax 486 nm, 17,000 M-1). AmpC beta lactamase was provided by Shoichet Lab, UCSF.\nBuffer: 20 mM phosphate buffer, pH 7.0 Triton X-100: No Detergent screen: 0.0001%, Detergent screen: 0.01%. Reagents/Controls: Buffer in columns 3 and 4 as negative control (no enzyme). 5.3 nM AmpC in columns 1, 2, 5-48. Titration of UCSF compound 9 control (from 10 mM, then 1:2) pin-transferred to column 2. Column 1 is neutral (100% activity). Assay Steps: Six uL of reagents were dispensed to 1536-well Greiner black clear bottom plates. Compounds and controls (23 nL) were transferred via Kalypsys PinTool. The plates were incubated for 15 min at room temperature, and then 2 uL of 800 uM solution of nitrocefin was added to start the reaction. The plates were immediately transferred to and read every 20 seconds for 4 min on ViewLux (Perkin-Elmer) High-throughput CCD imager using 480 nm absorbance protocol. During dispense, reagent bottles were kept submerged into 4 deg C water bath. Keywords: NIH Roadmap, MLSCN, MLI, MLSMR, qHTS, NCGC, AmpC Beta-Lactamase, Aggregation", "values": [
      {"smiles": "NC(=NC1CCCCC1)c1ccc(Cl)cc1", "activity change, negative = inhibition": "inactive: 2.38%"},
      {"smiles": "Cc1ccnc(NC(=O)c2ccccc2NC(=O)c2ccccc2)c1", "Potency": "inconclusive [inhibitor, single point]"},
      {"smiles": "CCN1CCN(c2ccc(NC(=O)c3ccc(F)cc3)cc2Cl)CC1", "activity change, negative = inhibition": "inactive: 4.75%"},
      {"smiles": "COc1ccc(N2CCN(C(=O)C34CCC(C)(C(=O)C3)C4(C)C)CC2)cc1", "note": "(stereo not given)", "Potency": "inconclusive [inhibitor, full curve, poor fit]"},
      {"smiles": "COCCCNc1nnc(Cc2ccc(Cl)cc2)c(=O)[nH]1", "activity change, negative = inhibition": "inactive: -4.34%"},
      {"smiles": "CC(=O)Nc1nonc1NC(=O)CSc1nc2ccccc2o1", "activity change, negative = inhibition": "inactive: -1.47%"},
      {"smiles": "CC(C)c1ccc(NC(=O)N2CCN(S(=O)(=O)c3ccccc3)CC2)cc1", "Potency": "inconclusive [inhibitor, single point]"},
      {"smiles": "Cc1ccc(CNC(=O)c2ccc(Cn3nc(C)cc3C)o2)cc1", "Potency": "inconclusive [inhibitor, full curve]"},
      {"smiles": "NC1=NC(=O)C(Cc2ccc(Br)cc2)S1", "note": "(stereo not given)", "Potency": "inconclusive [inhibitor, full curve, poor fit]"},
      {"smiles": "CC1(C)CC(=O)C(C2C3=C(CC(C)(C)CC3=O)Oc3c(Br)cc(Br)cc32)=C(O)C1", "note": "(stereo not given)", "Potency": "inconclusive [inhibitor, partial curve]"},
      {"smiles": "C=C(C)CN(CC)C(=O)CSc1ccc(S(=O)(=O)N2CCN(C)CC2)cn1", "Potency": "inconclusive [inhibitor, full curve, poor fit]"},
      {"smiles": "O=C(COc1ccccc1Cl)NCC(c1cccs1)N1CCOCC1", "note": "(stereo not given)", "Potency": "inconclusive [inhibitor, full curve, poor fit]"},
      {"smiles": "COc1ccc(C(=O)NNC(=O)Nc2ccc(Cl)cc2)cc1", "Potency": "inconclusive [inhibitor, single point]"},
      {"smiles": "NS(=O)(=O)c1ccc(CNC(=O)C2CCCCC2)cc1", "activity change, negative = inhibition": "inactive: 1.69%"},
      {"smiles": "O=C(Nc1ccc(N2CCCC2)cc1)c1cc(Cl)ccc1Cl", "activity change, negative = inhibition": "inactive: -11.7%"},
      {"smiles": "COc1ccc(NS(=O)(=O)c2cccs2)cc1S(=O)(=O)N1CCCCC1", "Potency": "inconclusive [inhibitor, partial curve]"},
      {"smiles": "CC(/C=N/N1CCN(Cc2ccccc2)CC1)=C\\c1ccccc1", "activity change, negative = inhibition": "inactive: 0.572%"},
      {"smiles": "C=Cn1cc[n+](CC(=O)c2ccc(Cl)cc2)c1", "activity change, negative = inhibition": "inactive: 0.467%"},
      {"smiles": "CCOC(=O)c1cc2cc(OC)ccc2[nH]1", "Potency": "inconclusive [inhibitor, full curve]"},
      {"smiles": "CC(/C=N/NC(=O)c1cccs1)=C\\c1ccccc1", "Potency": "inconclusive [inhibitor, single point]"},
      {"smiles": "COc1ccc(NC(=O)c2ccccc2[N+](=O)[O-])cc1OC", "Potency": "inconclusive [inhibitor, partial curve]"},
      {"smiles": "COc1ccccc1CN(CC(=O)NCC1CCCO1)C(=O)CNS(=O)(=O)c1ccc(C)cc1", "note": "(stereo not given)", "Potency": "inconclusive [inhibitor, full curve]"},
      {"smiles": "Cc1cccc(S(=O)Cc2ccc(C(=O)NC3CCN(Cc4ccccc4)CC3)o2)c1", "note": "(stereo not given)", "Potency": "inconclusive [inhibitor, single point]"},
      {"smiles": "COc1cc(C=O)ccc1OCCSc1ccc(C)cc1", "Potency": "inconclusive [inhibitor, partial curve]"},
      {"smiles": "COc1cccc(NC(=O)[C@@H]2CCC(=O)N2C2OC(=O)c3ccccc32)c1", "note": "(stereo not given in full)", "Potency": "inconclusive [inhibitor, full curve]"},
      {"smiles": "Cc1ccc(C)c(S(=O)(=O)N2CCN(CC(=O)Nc3cc(C)on3)CC2)c1", "Potency": "inconclusive [inhibitor, full curve, poor fit]"},
      {"smiles": "C[C@H]1C=C(C(=O)NCc2ccccc2)O[C@@H](OCc2ccc(CO)cc2)C1", "activity change, negative = inhibition": "inactive: 5.39%"},
      {"smiles": "Cc1cnc(C(=O)Nc2ccccc2-c2ccc(C)o2)cn1", "activity change, negative = inhibition": "inactive: 1.44%"},
      {"smiles": "Cc1cc(Nc2ccc(Br)cc2)n2nc(C)nc2n1", "Potency": "inconclusive [inhibitor, single point]"},
      {"smiles": "CC(=O)N(Cc1ccccc1)c1ccc(C(=O)O)cc1", "Potency": "inconclusive [inhibitor, full curve, poor fit]"},
      {"smiles": "Cc1nn2c([nH]c(=O)c3ccccc32)c1C=O", "Potency": "inconclusive [inhibitor, partial curve, poor fit]"},
      {"smiles": "CCN(CC)C(=O)CSc1ncnc2c1cnn2-c1ccccc1", "Potency": "inconclusive [inhibitor, partial curve]"},
      {"smiles": "CSc1ccccc1NC(=O)CSCc1nc2sc(C)c(C)c2c(=O)[nH]1", "Potency": "inconclusive [inhibitor, full curve, poor fit]"},
      {"smiles": "CN1C(=O)COc2c(C(=O)NC3CN4CCC3CC4)cc(Cl)cc21", "note": "(stereo not given)", "activity change, negative = inhibition": "inactive: 1.96%"},
      {"smiles": "CC1CCCC(NC(=O)C2CCN(S(=O)(=O)N3CCCCCC3)CC2)C1C", "note": "(stereo not given)", "Potency": "inconclusive [inhibitor, full curve]"}
    ]}
  ]
}
